Results reported in PubChem BioAssay (NCATS).
This list was built around the results that the source calls inconclusive (neither active nor inactive); the mix of calls is not that of the screen. A potency beside an inconclusive call is a rough fit, not a confirmed value. Active and inactive are the calls of the source. Unless noted, calls follow the shape of the dose curve; as a rule, active = well fitted curve in the direction sought with a large enough effect; inconclusive = small, poorly fitted or top-dose-only effect, or another doubt; inactive = no such curve, though single readings can be large; an effect the other way counts as inactive or inconclusive.

What was measured:
[1] = qHTS Assay for Identification of Small Molecule Agonists for Hypoxia Response Element Signaling Pathway (AID 914; active = well fitted activation curve with a large enough effect in the signal ratio, with a control signal flat, not every such curve was filed as active; inconclusive = small, poorly fitted or top-dose-only effect, or effect the other way, or a change in a side signal; the % refers to the signal ratio; as to activation: top concentration of the series differs between compounds; % of control where 0% means no effect); settings: ME-180 (cervical carcinoma) HRE-bla reporter, beta-lactamase ratio, CoCl2, 17 h; activation: active compounds read high
Summary of the method: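 HRE-bla ME-180 assay for agonist-like enhancement of an EC50 CoCl2 stimulus: 17 h at 37 degrees Celsius, CCF4 for 2.5 h, ratiometric 460/530 nm signal converted to %Activity and fitted to AC50.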

[2] = Primary qHTS for small molecule stabilizers of the endoplasmic reticulum resident proteome: Secreted ER Calcium Modulated Protein (SERCaMP) assay (AID 1508630); settings: SH-SY5Y GLuc-SERCaMP (Gaussia luciferase released on ER calcium loss) secretion, thapsigargin, luminescence; activity change, negative = inhibition: at 38.4 µM (top of the series) unless noted; as to activity change, negative = inhibition: % is scaled to controls: 0 for no effect and ±100 for the full control effect
Summary of the method: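 The SH-SY5Y reporter protocol was run at 3 concentrations up to 38.3 uM (primary) or 11 concentrations (follow-up): 16 h compound, 100 nM thapsigargin for 4 h, then extracellular luciferase luminescence.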

[3] = biological target: Cytochrome P450 2C9 (Homo sapiens) (UniProt P11712); assay: qHTS Assay for Inhibitors and Substrates of Cytochrome P450 2C9 (AID 883); also: nearly all actives have a fitted effect of over 60% in size
UniProt P11712, sequence (P11712 whole entry, looked up): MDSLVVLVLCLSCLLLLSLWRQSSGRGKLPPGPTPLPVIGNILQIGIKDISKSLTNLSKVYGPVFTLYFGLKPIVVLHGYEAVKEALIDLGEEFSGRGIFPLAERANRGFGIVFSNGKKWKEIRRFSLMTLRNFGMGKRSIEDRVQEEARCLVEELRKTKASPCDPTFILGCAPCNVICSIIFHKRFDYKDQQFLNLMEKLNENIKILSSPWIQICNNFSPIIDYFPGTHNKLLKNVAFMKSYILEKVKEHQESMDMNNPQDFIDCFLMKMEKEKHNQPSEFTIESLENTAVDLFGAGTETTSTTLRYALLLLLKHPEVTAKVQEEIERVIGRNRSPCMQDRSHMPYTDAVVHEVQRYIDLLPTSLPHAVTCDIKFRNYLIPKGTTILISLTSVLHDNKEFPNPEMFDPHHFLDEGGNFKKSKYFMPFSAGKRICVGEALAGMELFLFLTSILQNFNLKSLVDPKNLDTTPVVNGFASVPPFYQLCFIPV
Summary of the method: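 CYP2C9 deoxyluciferin hydroxylation, 37C, 60 min with NADPH regeneration; 10nM enzyme, 100uM Luciferin-H (KM). Glo detection reagent stopped reaction; luminescence normalized to sulphaphenazole (57uM) full inhibition.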

[4] = biological target: Cytochrome P450 3A4 (Homo sapiens) (UniProt P08684); assay: qHTS Assay for Inhibitors and Substrates of Cytochrome P450 3A4 (AID 884); settings: recombinant CYP3A4, Luciferin-PPXE luminescence; activity change, negative = inhibition: at 57.1 µM (top of the series); also: nearly all actives have a fitted effect of over 50% in size
UniProt P08684, sequence (P08684 whole entry, looked up): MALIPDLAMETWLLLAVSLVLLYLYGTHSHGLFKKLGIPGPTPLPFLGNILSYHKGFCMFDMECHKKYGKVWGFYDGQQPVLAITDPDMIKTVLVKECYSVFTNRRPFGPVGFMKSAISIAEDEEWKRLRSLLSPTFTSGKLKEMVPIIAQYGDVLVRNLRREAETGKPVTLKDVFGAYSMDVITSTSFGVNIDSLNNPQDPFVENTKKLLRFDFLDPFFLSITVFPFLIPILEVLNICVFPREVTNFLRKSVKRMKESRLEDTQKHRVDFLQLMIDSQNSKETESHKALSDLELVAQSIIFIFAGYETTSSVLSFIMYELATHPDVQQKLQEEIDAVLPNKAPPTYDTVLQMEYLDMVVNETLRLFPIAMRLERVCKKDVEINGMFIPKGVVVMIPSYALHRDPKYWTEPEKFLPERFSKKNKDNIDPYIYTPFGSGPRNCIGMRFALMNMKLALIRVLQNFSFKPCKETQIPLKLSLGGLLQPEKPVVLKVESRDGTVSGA
Summary of the method: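 Luminescent readout of luciferin produced by CYP3A4 (20 nM) dealkylation of Luciferin-PPXE, 25 uM (its KM). NADPH-driven reaction ran 60 min at RT after 10 min compound preincubation; data scaled to 57 uM ketoconazole as 100% inhibition.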

[5] = biological target: 3',5'-cyclic-AMP phosphodiesterase 4B (Homo sapiens) (UniProt Q07343); assay: qHTS Assay for Inhibitors of PDE-IV (AID 607; active = well fitted activation curve with a large enough effect in the main read-out, with a control signal flat, not every such curve was filed as active; inconclusive = small, poorly fitted or top-dose-only effect, or effect the other way, or a change in a side signal); settings: HEK293 ACTOne CNG channel cells, membrane potential fluorescence; activation (PDE inhibition): at 22.9 µM (top of the series)
UniProt Q07343, sequence (Q07343 whole entry, looked up): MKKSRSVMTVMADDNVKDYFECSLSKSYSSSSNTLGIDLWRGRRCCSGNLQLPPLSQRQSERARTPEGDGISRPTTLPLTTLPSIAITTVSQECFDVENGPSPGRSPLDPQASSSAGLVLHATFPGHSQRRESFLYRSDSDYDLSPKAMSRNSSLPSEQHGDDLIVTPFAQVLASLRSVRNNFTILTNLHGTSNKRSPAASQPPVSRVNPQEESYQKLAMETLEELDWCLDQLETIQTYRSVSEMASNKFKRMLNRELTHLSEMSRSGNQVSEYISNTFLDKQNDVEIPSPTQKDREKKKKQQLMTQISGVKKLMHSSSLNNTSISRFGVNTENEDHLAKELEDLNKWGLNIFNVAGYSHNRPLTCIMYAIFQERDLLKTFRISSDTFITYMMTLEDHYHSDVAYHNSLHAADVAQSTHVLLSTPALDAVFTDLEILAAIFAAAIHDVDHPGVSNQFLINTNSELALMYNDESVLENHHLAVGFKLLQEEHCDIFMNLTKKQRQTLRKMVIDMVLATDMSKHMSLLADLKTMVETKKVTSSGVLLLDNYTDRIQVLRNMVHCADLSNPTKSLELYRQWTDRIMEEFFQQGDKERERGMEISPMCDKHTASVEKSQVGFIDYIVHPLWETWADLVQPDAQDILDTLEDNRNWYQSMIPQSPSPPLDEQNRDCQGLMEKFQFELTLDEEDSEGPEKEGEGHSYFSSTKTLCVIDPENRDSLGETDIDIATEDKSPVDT
Summary of the method: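 Live HEK293 cells with a modified cyclic nucleotide-gated (CNG) channel report intracellular cAMP via membrane-potential dye fluorescence (ex 535/em 590 nm). Endogenous PDE-IV was targeted. Compounds were tested at up to 22.9 uM final; RO 20-1724 100 uM served as control.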

[6] = biological target: Cytochrome P450 3A4 (Homo sapiens) (UniProt P08684); assay: qHTS Assay for Activators of Cytochrome P450 3A4 (AID 885); also: nearly all actives have a fitted effect of over 65% in size
Summary of the method: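 Using 20nM recombinant human CYP3A4 in potassium phosphate (200mM), substrate Luciferin-PPXE at 25uM, luminescent luciferin detection followed a 60-min RT NADPH reaction; data scaled to 57 uM ketoconazole.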
Potency is read from the fitted curve at half-maximal effect; tags tell the direction and shape of the fitted curve or compound fluorescence and quenching.

In the case of COc1ccc(NC(=O)N2CC3(CCN(C(=O)c4cc(C(F)(F)F)cc(C(F)(F)F)c4)CC3)C2)cc1, the activation [1] is reported as inconclusive: -6.33% and the Potency [2] is reported as “inactive”.
In the case of COc1ccccc1-c1nccc(N2CCN(C)CC2)n1, the activation [1] is reported as inactive: 26.2% and the Potency [2] is reported as inconclusive: 28.2 µM [inhibitor, single point].
In the case of CN(Cc1ccco1)c1ncnc2ccc(-c3cccc(C#N)c3)cc12, the Potency [3] is reported as inconclusive: 1.58 µM [inhibitor, single point], the activation [1] is reported as inconclusive: -10.7% and the Potency [2] is reported as “inactive”.
In the case of CN(C)C(=O)c1ccc(-c2cncnc2Nc2ccccc2)cc1, the Potency [4] is reported as inconclusive: 5.01 µM [inhibitor, full curve] and the Potency [2] is reported as “inactive”.
In the case of COc1ccc(Oc2ncc3nc(C)c(=O)n(Cc4ccc(F)cc4)c3n2)cc1, the Potency [5] is reported as inconclusive: 5.01 µM [activator, partial curve], the activation [1] is reported as inconclusive: -32.4% and the Potency [2] is reported as inconclusive: 7.94 µM [inhibitor, partial curve, poor fit].
In the case of COCC(=O)N1CCC2(CC1)CCN(c1ccc(-c3ccccc3)cc1)CC2, the Potency [6] is reported as inconclusive: 1.26 µM [activator, full curve, poor fit] and the Potency [2] is reported as “inactive”.
For COCCn1c(=O)c(-c2cccs2)nc2cnc(OC)nc21, the Potency [5] was inconclusive: 10 µM [activator, partial curve], the Potency [1] was inconclusive: 3.98 µM [activator, single point] and the Potency [2] was “inactive”.
With CN1CCN(c2ncnc3ccc(-c4ccoc4)cc23)CC1 the Potency [5] was inconclusive: 1 µM [activator, partial curve, poor fit], the Potency [1] was inconclusive: 0.794 µM [inhibitor, partial curve] and the Potency [2] was inconclusive: 28.2 µM [inhibitor, single point].
